According to the supplement of paper PMC4723716:
± gives the uncertainty stated by the source. Whole data set: some 9,900 compounds, median “viability index relative to DMSO control” near 1, cut for the lowest 2% near 0.85. The list shows a part of the results.

system: Plasmodium falciparum NF54 stage V gametocytes; test: viability index relative to DMSO control (fraction); higher = less gametocyte killing; conditions: 2.5 µM, library set: Broad Institute DOS, incubation time: 72 h
In short: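 P. falciparum NF54 stage V gametocytes (serum-free medium, 0.75% gametocytemia, 1.25% hematocrit) were exposed to compound at 2.5 µM for 72 hr at 37°C under low oxygen, then stained with MitoTracker Red CMXRos and saponin for one to two hours. Red particles of 20–70 µm2 in one field per well were counted, and the viability index is that count scaled to the plate mean of solvent-only wells.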

SMILES	viability index
O=C([C@H]1[C@H](CO)[C@H]2Cn3c(cccc3=O)[C@@H]1N2Cc1cocn1)N1CCCCC1	1.03 ± 0.037
Cc1noc(C)c1S(=O)(=O)N(C)C[C@@H]1OCCCC[C@@H](C)Oc2ccc(NC(=O)CCC(F)(F)F)cc2C(=O)N([C@@H](C)CO)C[C@@H]1C	1.09 ± 0.024
O=C(c1cccnc1)N1CC[C@@H]2[C@@H](CO)Nc3ccc(C4=CCCCC4)cc3[C@@H]21	1.06 ± 0.12
C[C@@H]1CN([C@H](C)CO)C(=O)c2cccc(NC(=O)Nc3ccc(C(F)(F)F)cc3)c2O[C@H]1CN(C)S(=O)(=O)c1cn(C)cn1	1.09 ± 0.03
COc1ccccc1CNC(=O)C[C@H]1C[C@H]2c3cc(NC(=O)C4CCC4)ccc3O[C@H]2[C@@H](CO)O1	1.1 ± 0.057
COc1ccc(S(=O)(=O)N(C)C[C@@H]2Oc3ccc(N(C)C)cc3CC(=O)N([C@@H](C)CO)C[C@H]2C)cc1	0.938 ± 0.06
C[C@@H]1CN([C@@H](C)CO)C(=O)c2cc(N(C)C)ccc2O[C@H]1CN(C)Cc1ccc(Oc2ccccc2)cc1	0.983 ± 0.035
COc1cccc(-c2ccc3c(c2)O[C@H](CN(C)Cc2cccnc2)[C@@H](C)CN([C@H](C)CO)S3(=O)=O)c1	0.94 ± 0.046
COc1ccc(-c2ccccc2[C@H]2[C@@H](C#N)N(C(=O)C3CCC3)[C@@H]2CO)cc1	1.21 ± 0.17
CN1C(=O)c2cc(NC(=O)c3cccc(F)c3)ccc2OC[C@@H]2O[C@H](CC(=O)NCc3ccccc3Cl)CC[C@@H]21	0.932 ± 0.042
COc1ccc(NC(=O)N(C)C[C@H]2Oc3c(NC(=O)CCCCCC(=O)Nc4ccccc4N)cccc3C(=O)N([C@H](C)CO)C[C@H]2C)cc1	0.62 ± 0.082
C[C@H]1CCc2cnnn2COCCNC1=O	0.919 ± 0.21
O=C(C[C@H]1CC[C@H]2[C@@H](COC[C@@H](O)CN2Cc2cc(F)ccc2F)O1)NCc1ccc(Oc2ccccc2)cc1	1.069 ± 0.0049
COc1ccc(S(=O)(=O)N(C)C[C@H]2Oc3c(cccc3N(C)C)C(=O)N([C@H](C)CO)C[C@@H]2C)cc1	0.979 ± 0.073
CCCNC(=O)N1C[C@@H]2N[C@H](C1)[C@H]2c1ccc(-c2ccc(OC)cc2)cc1	1.03 ± 0.046
COc1ccc(C(=O)N2C[C@H]3[C@@H](c4ccccc42)[C@H](CO)N3C(=O)NC(C)C)cc1	1.04 ± 0.14
CO[C@H]1CN(C)C(=O)c2cc(NC(=O)NC(C)C)ccc2OC[C@H](C)N(Cc2ccccc2)C[C@H]1C	1.01 ± 0.022
CO[C@@H]1CN(C)C(=O)c2cccc(C#N)c2OCC[C@@H]2CC[C@@H](OC)[C@@H](CN(C)C(=O)[C@H]1C)O2	1.09 ± 0.059
COc1cccc(C#Cc2ccc([C@@H]3[C@@H](CO)N4C(=O)CN(C(=O)Cc5cccnc5)C[C@H]34)cc2)c1	1.01 ± 0.084
CN(C)C(=O)c1cccc(-c2ccc([C@H]3[C@H](CO)N4C(=O)CN(C(=O)C5CCC5)C[C@@H]34)cc2)c1	1.01 ± 0.038
COCC#Cc1ccc([C@@H]2[C@H](CO)N3CCCCN(Cc4cccnc4)C[C@@H]23)cc1	1.03 ± 0.068
O=C(N[C@H]1C=C[C@@H](CC(=O)N2CCN(c3ccccc3)CC2)O[C@@H]1CO)c1ccccc1	1.1 ± 0.04
C/C=C/c1ccc([C@@H]2[C@H](CO)N(C(=O)C3CCC3)C23CN(C(=O)NC(C)C)C3)cc1	1.06 ± 0.014
COCC(=O)Nc1ccc2c(c1)OC[C@H](C)N(C)C[C@@H](C)[C@@H](OC)CN(C)C2=O	1.06 ± 0.093

SMILES	viability index
O=C(Cc1cccnc1)N1CC(=O)N2[C@H](CO)[C@H](c3ccc(C#CC4CCCCC4)cc3)[C@@H]2C1	1.03 ± 0.036
CC(C)(C)[S@](=O)N1Cc2cc(C(=O)N3CCc4ccccc4C3)nc(-c3cccc(-c4cncnc4)c3)c2[C@@H]1CCO	1.05 ± 0.076
CO[C@@H]1CN(C)C(=O)c2cc(NS(=O)(=O)c3ccccc3C)ccc2OC[C@@H](C)N(S(=O)(=O)c2ccccc2)C[C@H]1C	1.12 ± 0.058
N#C[C@@H]1[C@@H](c2ccccc2-c2ccccc2F)[C@@H](CO)N1C(=O)c1ccccn1	1.1 ± 0.17
CCC(=O)N1[C@H](CO)[C@H](c2ccccc2)C12CN(C(=O)c1ccncc1)C2	1.15 ± 0.098
C[C@H](CO)N1C[C@H](C)[C@H](CN(C)S(=O)(=O)c2cn(C)cn2)OCc2cnnn2CCCC1=O	1.01 ± 0.029
COc1ccc(S(=O)(=O)N(C)C[C@H]2Oc3ccc(NC(=O)Nc4ccc(C(F)(F)F)cc4)cc3C(=O)N([C@H](C)CO)C[C@H]2C)cc1	1.03 ± 0.16
C[C@H](CO)N1C[C@H](C)[C@H](CN(C)C(=O)CCC(F)(F)F)OCCCC[C@H](C)Oc2ccc(NC(=O)C3CCCCC3)cc2C1=O	1.1 ± 0.15
CN(C)CC(=O)N1[C@H](CO)[C@H](c2ccccc2)C12CN(C(=O)c1ccc(F)cc1)C2	1.11 ± 0.06
COc1ccc(CN(C)C[C@@H]2OCCCC[C@@H](C)Oc3ccc(NC(=O)C4CCCCC4)cc3C(=O)N([C@H](C)CO)C[C@H]2C)cc1	1.03 ± 0.042
O=C(Cc1ccncc1)Nc1ccc2c(c1)[C@H]1C[C@@H](CC(=O)N3CCc4ccccc4C3)O[C@@H](CO)[C@H]1O2	1.06 ± 0.04
COc1ccc(C(=O)Nc2ccc3c(c2)C(=O)N(C)[C@@H]2CC[C@@H](CC(=O)NCC4CC4)O[C@H]2CO3)cc1	0.932 ± 0.15
C/C=C/c1ccc2c(c1)O[C@@H](CN(C)C(=O)Nc1ccc(OC)cc1)[C@H](C)CN([C@@H](C)CO)S2(=O)=O	0.987 ± 0.059
Fc1cccc(-c2ccc([C@H]3[C@H]4CNC[C@@H]3N4Cc3cncnc3)cc2)c1	0.985 ± 0.08
COCC(=O)Nc1ccc2c(c1)C(=O)N(C)[C@H]1CC[C@@H](CC(=O)NCCCN(C)C)O[C@@H]1CO2	0.998 ± 0.096
COc1ccc2c3c([C@H](CO)N(C[C@]33CCN(CC4CCCCC4)CC3)S(C)(=O)=O)n(C)c2c1	0.902 ± 0.063
CN(C)C(=O)c1cccc(-c2ccccc2[C@H]2[C@@H](CO)N(C(=O)C3CCCCC3)[C@H]2C#N)c1	1.1 ± 0.037
O=C(C[C@H]1C=C[C@H](NC(=O)c2cnccn2)[C@H](CO)O1)NCc1ccccc1F	1.01 ± 0.14
C(=C\c1ccc([C@H]2[C@@H]3CN(Cc4nccs4)C[C@H]2N3)cc1)/c1ccccc1	0.984 ± 0.06
CCC(=O)N1C[C@H]2[C@@H](c3ccccc31)[C@@H](CO)N2Cc1ccc(F)cc1	1.04 ± 0.036
CC(C)NC(=O)N(C)C[C@H]1Oc2ccc(NC(=O)c3ccncc3)cc2C(=O)N([C@H](C)CO)C[C@@H]1C	0.939 ± 0.082
O=C(Cc1ccncc1)NCC[C@@H]1CC[C@@H](NS(=O)(=O)c2ccccc2Cl)[C@@H](CO)O1	1.08 ± 0.081
CC(C)CC#Cc1ccc([C@H]2[C@@H](CO)N3C(=O)CN(C(=O)c4cccc(F)c4)C[C@@H]23)cc1	1.09 ± 0.059
N#C[C@H]1[C@@H](c2ccccc2)[C@H](CO)N1S(=O)(=O)c1cccc(F)c1	1.1 ± 0.034

SMILES	viability index
CO[C@H]1CN(C)C(=O)c2cc(NC(=O)Nc3cc(F)ccc3F)ccc2OC[C@H](C)NC[C@@H]1C	1.03 ± 0.053
COCC(=O)NC[C@@H]1[C@H](c2ccccc2)[C@H](CO)N1C(=O)c1ccccc1	0.986 ± 0.17
CNC[C@H]1Oc2ccc(NC(=O)NC3CCCCC3)cc2CC(=O)N([C@H](C)CO)C[C@H]1C	0.964 ± 0.085
COC(=O)C[C@@H]1C[C@@H]2c3cc(NC(=O)C4CCOCC4)ccc3O[C@@H]2[C@H](CO)O1	1.11 ± 0.046
O=C(NCC[C@H]1CC[C@H](NC(=O)c2ccncc2)[C@H](CO)O1)Nc1ccc(Cl)cc1	1.12 ± 0.081
CCCNC(=O)C[C@@H]1CC[C@H]2[C@H](COc3ccc(NC(=O)CC)cc3C(=O)N2C)O1	1.12 ± 0.067
CCCC(=O)N1C[C@]2(CN(C2)C(=O)NC(C)C)c2c([nH]c3cc(OC)ccc23)[C@H]1CO	0.984 ± 0.16
O=C(C1CCOCC1)N1C[C@@H]2[C@H](c3ccccc31)[C@H](CO)N2C(=O)Cc1ccccn1	1.06 ± 0.039
Cn1cnc(S(=O)(=O)N2C[C@@H](O)COC[C@@H]3O[C@@H](CC(=O)NCc4cccc(F)c4)CC[C@H]32)c1	1.01 ± 0.021
C[C@H]1CN([C@@H](C)CO)C(=O)c2c(c3ccccc3n2C)-c2ccccc2CO[C@@H]1CN(C)C(=O)Nc1ccc2c(c1)OCO2	0.961 ± 0.062
CCCN1C[C@@H](C)[C@@H](OC)CN(C)C(=O)c2cc(NC(=O)C3CCC3)ccc2OC[C@@H]1C	1.02 ± 0.05
C[C@H]1CN([C@@H](C)CO)C(=O)c2ccccc2-c2ccccc2CO[C@@H]1CN(C)C(=O)CCC(F)(F)F	1.03 ± 0.064
COCC(=O)Nc1ccc2c(c1)[C@H]1C[C@H](CC(=O)NCc3ccc4c(c3)OCO4)O[C@@H](CO)[C@H]1O2	1.05 ± 0.012
O=C(C[C@@H]1CC[C@@H]2[C@H](COC[C@H](O)CN2C(=O)c2cnccn2)O1)N1CCN(c2ccccc2)CC1	1.09 ± 0.1
O=C(C[C@@H]1CC[C@@H]2NC[C@@H](O)COC[C@H]2O1)NCc1ccc2c(c1)OCO2	1.02 ± 0.052
C[C@@H]1CN([C@H](C)CO)C(=O)c2cc(NC(=O)C3CC3)ccc2O[C@H]1CN(C)S(=O)(=O)c1ccccc1	0.9611 ± 0.002
Cc1ccccc1-c1ccccc1[C@H]1[C@@H](CO)N(C(=O)c2ccc(F)cc2)[C@H]1C#N	1.05 ± 0.062
Cc1ccc(S(=O)(=O)N2C[C@@H]3[C@H](c4ccccc42)[C@@H](CO)N3Cc2cccnc2)cc1	1.04 ± 0.049
O=C(NCCc1ccncc1)[C@H]1[C@H](CO)[C@H]2Cn3c(cccc3=O)[C@@H]1N2Cc1ccccc1F	1.04 ± 0.027
C[C@@H]1CN([C@H](C)CO)C(=O)c2cc(C3=CCCC3)cnc2O[C@H]1CN(C)C(=O)Nc1ccc(C(F)(F)F)cc1	1.04 ± 0.015
COc1cccc(S(=O)(=O)N(C)C[C@@H]2OCc3ccccc3-c3c(n(C)c4ccccc34)C(=O)N([C@@H](C)CO)C[C@@H]2C)c1	0.964 ± 0.046
COc1ccc(C[C@H]2CCc3cnnn3COCCNC2=O)cc1	1.101 ± 0.0095
C[C@H]1CN([C@@H](C)CO)C(=O)c2c(c3ccccc3n2C)-c2ccccc2CO[C@H]1CN(C)C(=O)Nc1ccccc1C(F)(F)F	0.914 ± 0.034
